Hit rate of the full screen: of about 420,000 compounds, about 50,000 (12%) were called active. This list was built around the results that the source calls inconclusive (neither active nor inactive); the mix of calls is not that of the screen. The call rests on the fitted dose curve; in most records, active means well fitted inhibition curve with a large enough effect; inconclusive means small, poorly fitted or top-dose-only effect; inactive means flat fitted curve, though single readings scatter. No potency is given beside an inconclusive call; the fits are too rough.
Assay: qHTS for Inhibitors of human tyrosyl-DNA phosphodiesterase 1 (TDP1): qHTS in cells in presence of CPT; further: nearly all actives have a fitted effect of over 55% in size
Settings: chicken DT40 Tdp1-/-;hTDP1 cells + 20 nM CPT, ATP luminescence, 48 h; series mostly up to 46.2 µM
How it was run: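 Chicken DT40 Tdp1-/- cells complemented with human TDP1, 400 cells/well, exposed to compounds plus 20 nM camptothecin for at least 48 h at 37 C; viability read as ATP content by CellTiter-Glo luminescence.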
With `CN(C)c1ccc(/C=N/NC(=O)CCc2nc3ccccc3[nH]2)cc1` the Potency was “inactive”. In the case of `COc1ccc(S(=O)(=O)N2CCCCCC2)cc1NC(=O)CN1C(=O)NC(C)(c2ccc(C)cc2)C1=O` (stereo not given), the Potency is reported as inconclusive [inhibitor, single point]. For `COc1ccc2oc(C(=O)N3CCN(S(=O)(=O)c4cccc([N+](=O)[O-])c4)CC3)c(C)c2c1`, the Potency was active: 16.4 µM. With `Cc1cc(-c2cc(NC=O)c3ncc(-c4cccc(C(=O)NCCN(C)C)c4)n3c2)cc(C)c1O` the Potency was inconclusive [inhibitor, single point]. For `O=C1C=C(c2ccc(Cl)c(C(F)(F)F)c2)C[C@@H](c2ccc(Cl)cc2)C1`, the Potency was inconclusive [inhibitor, single point]. For `CCSc1nnc(NC(=O)C(C)Sc2nc3ccccc3[nH]2)s1` (stereo not given), the Potency was inconclusive [inhibitor, single point]. In the case of `CCOc1ccc(NC(=O)NC(=O)N(C(C)C)S(C)(=O)=O)cc1`, the Potency is reported as inconclusive [inhibitor, single point]. With `CCCCN(C)CCCNC(=O)C1(O)c2ccccc2NC(=O)N1c1ccc(Cl)cc1` (stereo not given) the Potency was “inactive”. In the case of `O=C(Cn1ncc2c3ccccc3n(Cc3ccccc3F)c2c1=O)NCCN1CCOCC1`, the Potency is reported as inconclusive [inhibitor, single point]. In the case of `CCC(Cn1nnc2ccccc2c1=O)NC(=O)Nc1cccc(Cl)c1` (stereo not given), the Potency is reported as “inactive”. With `Cc1ccccc1NC(=O)CSc1nnc(-c2ccoc2C)n1CCc1ccccc1` the Potency was inconclusive [inhibitor, single point]. In the case of `O=C(c1ccc(S(=O)(=O)N2CCCCCC2)cc1)N1CCN(c2ccccc2F)CC1`, the Potency is reported as inconclusive [inhibitor, single point]. For `C[C@H](CO)N1C[C@H](C)[C@H](CN(C)S(=O)(=O)c2cccs2)Oc2ncc(-c3cc4ccccc4o3)cc2C1=O`, the Potency was active: 23.1 µM. For `COCCNC(=O)CN1N=C(c2ccc(OC)cc2)CCC1=O`, the Potency was inconclusive [inhibitor, single point]. For `Cc1ccc(-c2cc(-c3ccc(C)o3)nc(N)c2C#N)cc1`, the Potency was active: 14.6 µM. For `O=S(=O)(/C=C/c1ccccc1)Oc1ccccc1`, the Potency was active: 25.9 µM. With `COc1cc(OC)cc(C(=O)NCc2cc(C)nc3ccccc23)c1` the Potency was inconclusive [inhibitor, single point]. In the case of `CCOC(=O)c1cnn(CCOC(=O)C2CC2)c1NC(=O)C1CC1`, the Potency is reported as “inactive”. In the case of `CCCCNC(=O)Nc1nnc(-c2ccccc2)o1`, the Potency is reported as “inactive”. For `CCc1cccc(NC(=O)Cn2c(=O)n(CC3CCC(C(=O)NCCc4ccccc4)CC3)c(=O)c3ccccc32)c1` (stereo not given), the Potency was active: 20.6 µM. With `CC(C)CCNC(=O)[C@H](Cc1ccccc1)N1Cc2ccccc2C1=O` the Potency was inconclusive [inhibitor, single point]. For `Cc1ccc(S(=O)(=O)N2CCCC(c3nnc4n3-c3ccccc3SC4)C2)cc1` (stereo not given), the Potency was inconclusive [inhibitor, single point]. With `Cn1cnnc1SCC(=O)c1cccc([N+](=O)[O-])c1` the Potency was “inactive”. In the case of `Cc1oc(-c2cccc(Cl)c2)nc1CS(=O)(=O)CC(=O)NCCN1CCCC1`, the Potency is reported as “inactive”. For `CCOC(=O)c1c(NC(=O)CN2CCCCC2)sc(C)c1C`, the Potency was inconclusive [inhibitor, single point]. For `CCN(C(=O)C1CCN(c2nc(-c3ccc(OC)cc3)no2)CC1)c1ccccc1`, the Potency was inconclusive [inhibitor, single point]. With `C[C@@H]1CN([C@H](C)CO)S(=O)(=O)c2ccc(C3=CCCCC3)cc2O[C@H]1CN(C)C(=O)Cc1cccnc1` the Potency was inconclusive [inhibitor, single point]. In the case of `c1ccc(CN2CCN(Cc3ccc4c(c3)CN(Cc3c[nH]c5ccccc35)CCO4)CC2)nc1`, the Potency is reported as inconclusive [inhibitor, single point]. In the case of `O=[N+]([O-])c1cccc(CN2CCN(c3cccc4[nH]ccc34)CC2)c1`, the Potency is reported as inconclusive [inhibitor, partial curve]. For `Cc1ccc(NC(=O)NCC2CCN(Cc3cccc(Cl)c3)CC2)c(Cl)c1`, the Potency was inconclusive [inhibitor, single point]. In the case of `O=C(CN(Cc1ccccc1)C(=O)CNS(=O)(=O)c1ccc(F)cc1)NCc1ccco1`, the Potency is reported as “inactive”. In the case of `COc1ccc(Cl)cc1N(CC(=O)NC(C)(C)C)S(=O)(=O)c1ccc(C)c([N+](=O)[O-])c1`, the Potency is reported as active: 16.4 µM. In the case of `CCOC(=O)C1CCN(C(=O)COc2ccc3c(c2)OCO3)CC1`, the Potency is reported as “inactive”. With `Cc1ccc(C2=NN(C)c3nc4ccccc4n3C2)cc1` the Potency was active: 18.4 µM. For `CCC(=O)N1CCN(c2ccccc2NC(=O)Cc2ccc(Cl)cc2)CC1`, the Potency was “inactive”. In the case of `CN(C(=O)Nc1cn(C)c(=O)c2ccccc12)c1ccccc1`, the Potency is reported as “inactive”. In the case of `COc1cncc(-c2cnc3sc(NCCc4ccccn4)nn23)c1`, the Potency is reported as active: 13 µM. In the case of `Cc1ccccc1C(=O)N1CCN(c2ccc([N+](=O)[O-])c(NCc3cccnc3)c2)CC1`, the Potency is reported as inconclusive [inhibitor, single point]. With `CN1CCc2nc(SCC(=O)Nc3ccc(OC(F)(F)F)cc3)c(C#N)c(-c3cccs3)c2C1` the Potency was active: 14.6 µM. With `O=C(C[N+]12CN3CN(CN(C3)C1)C2)c1ccc(-c2ccccc2)cc1` the Potency was inconclusive [inhibitor, single point]. For `OC(c1ccc(Cl)c(F)c1)c1ncc(-c2cccc(C(F)(F)F)c2)[nH]1` (stereo not given), the Potency was inconclusive [inhibitor, single point]. For `COc1cc(CNC(=O)CCCCCCC(C)C)ccc1O`, the Potency was inconclusive [inhibitor, single point]. In the case of `COc1ccccc1CCNC(=O)Cc1c(C)c2c(cc(C)c3c(C)coc32)oc1=O`, the Potency is reported as inconclusive [inhibitor, full curve, poor fit]. In the case of `COc1ccc(N2C(=O)C(CC(=O)Nc3ccc(F)cc3)N(CCC3=CCCCC3)C2=O)cc1` (stereo not given), the Potency is reported as inconclusive [inhibitor, single point]. With `O=C(O)/C=C/c1ccc2c(c1)S(=O)(=O)N(C1CCCC1)[C@H]2CC(=O)O` the Potency was “inactive”. With `COc1cccc(-c2cc(C(=O)NC3CCCC3)c3ccccc3n2)c1` the Potency was inconclusive [inhibitor, single point]. With `O=C(/C=C/c1ccc(Cl)cc1)NC(=S)Nc1ccccc1C(=O)O` the Potency was inconclusive [inhibitor, single point]. For `Cc1oc(-c2ccc(Cl)cc2)nc1CN1CCCC(C(=O)NCCCN2CCCC2=O)C1` (stereo not given), the Potency was active: 8.2 µM. For `Cc1cc(C)nc(S/C=C/C(=O)c2ccccc2)n1`, the Potency was active: 2.06 µM. With `Cc1cccn2c(=O)c(/C=C3\SC(=S)NC3=O)c(NCCCN3CCOCC3)nc12` the Potency was inconclusive [inhibitor, single point]. With `O=C(CSC1=Nc2ccccc2N=C(c2ccc(F)cc2)C1)Nc1cc(F)ccc1F` the Potency was inconclusive [inhibitor, partial curve, poor fit]. In the case of `NCCSc1nc2ccccc2s1`, the Potency is reported as inconclusive [inhibitor, single point]. With `CCOC(=O)N1CCN(S(=O)(=O)c2ccc(OC)cc2)CC1` the Potency was “inactive”. For `COc1ccc(Cl)cc1NC(=O)CN1c2ccccc2S(=O)(=O)c2ccccc21`, the Potency was inconclusive [inhibitor, single point]. In the case of `O=C(CSc1ccccc1)N(c1ccc(Br)cc1)c1nccs1`, the Potency is reported as inconclusive [inhibitor, partial curve]. For `COc1ccc(C(OC(=O)c2ccco2)C(=O)NC(C)(C)C)cc1` (stereo not given), the Potency was “inactive”. For `Cc1cc(Nc2ccc([N+](=O)[O-])cc2)nc2ccccc12`, the Potency was “inactive”. In the case of `CN(Cc1ccc(F)cc1)C(=O)c1cccc(S(=O)(=O)NCc2ccccc2)c1`, the Potency is reported as inconclusive [inhibitor, single point]. For `COc1ccc(CNC(=O)[C@H](C)NC(=O)C2CC(=O)N(c3ccc(OC)cc3)C2)cc1` (stereo not given in full), the Potency was inconclusive [inhibitor, single point]. With `CCN(CC)C(=O)C1=C(C)N(Cc2ccc(C(C)(C)C)cc2)C(=O)C(CC(=O)NCCCN(C)C)C1` (stereo not given) the Potency was “inactive”. In the case of `COc1ccc(OC)c(-c2cc(C3CCN(c4cc(Cl)nc(N)n4)CC3)[nH]n2)c1`, the Potency is reported as active: 13 µM. For `CN(Cc1cccs1)c1nc(-c2cccnc2)nc2ccccc12`, the Potency was active: 23.1 µM. In the case of `CCCCNc1cc(NC2CCCCC2)c2c3c(onc13)-c1ccccc1C2=O`, the Potency is reported as inconclusive [inhibitor, single point]. With `CCN(CC(=O)Nc1ccccc1C(F)(F)F)C(=O)CN1C(=O)NC(C)(c2ccc3ccccc3c2)C1=O` (stereo not given) the Potency was inconclusive [inhibitor, single point]. For `Cc1ccc(S(=O)(=O)N2CCN(C(=O)COC(=O)c3ncc(Cl)c(Cl)c3Cl)CC2)c(C)c1`, the Potency was inconclusive [inhibitor, single point]. For `Nc1c(Br)cc2c([nH]c(=O)c3ccccc32)c1Br`, the Potency was inconclusive [inhibitor, single point]. For `COc1ccccc1CCNC(=O)c1cc2ccccn2n1`, the Potency was inconclusive [inhibitor, partial curve, poor fit]. For `O=C1CCc2cc(-c3csc(-c4ccc(O)cc4)n3)ccc2N1`, the Potency was active: 11.2 µM. With `Cn1cnc2c(=O)[nH]cc([N+](=O)[O-])c21` the Potency was “inactive”. In the case of `Cc1cccc(-n2c(O)c(C=Nc3cccc(O)c3)c3ccccc3c2=O)n1`, the Potency is reported as active: 20.6 µM.

Reference: PubChem BioAssay AID686979 (National Center for Advancing Translational Sciences (NCATS), 2013)
Potency means the concentration at half of the fitted maximal effect; tags describe the fitted curve by direction and shape.
